These results are taken from the antibiotic and cytotoxicity screens of Wong et al. (2023).

SMILES strings stand for the structures. The list shows a part of the results.

One experiment has as its system HSkMC. Description: cytotoxicity call (relative viability < 0.9). The note with it: 10 µM.
A further experiment deals with HepG2. As to the kind of experiment: cytotoxicity call (relative viability < 0.9). The note with it: 10 µM.
The next experiment has as its system S. aureus RN4220. As to the kind of experiment: growth inhibition call (relative growth <= 0.2). Conditions: 50 µM.

In the case of `C[C@@H]1CN([C@H](C)CO)C(=O)Cc2cc(NC(=O)Nc3ccc(F)cc3)ccc2O[C@H]1CN(C)Cc1ccc(-c2ccccc2)cc1`, the cytotoxicity call with HSkMC and with HepG2 was “active” in each case. Moreover, in the experiment with S. aureus RN4220, the growth inhibition call is “inactive”.

With `CCCNC(=O)C[C@@H]1CC[C@@H]2[C@H](COC[C@H](O)CN2S(=O)(=O)c2ccc(Oc3ccccc3)cc2)O1`, the cytotoxicity call in the experiment with HSkMC and with HepG2 was “inactive” each time. In the experiment on S. aureus RN4220, the growth inhibition call was “inactive”.

Turning to `Cc1ccc(S(=O)(=O)N(C)C[C@@H]2Oc3ccc(NS(=O)(=O)c4cn(C)cn4)cc3CC(=O)N([C@H](C)CO)C[C@@H]2C)cc1`, the cytotoxicity call in the experiment with HSkMC and in the experiment with HepG2 was “inactive” each time. The growth inhibition call in the experiment with S. aureus RN4220 is “inactive”.

On to `C[C@@H]1CN([C@H](C)CO)C(=O)Cc2cc(NC(=O)Cn3cnnn3)ccc2O[C@@H]1CN(C)Cc1ccc2c(c1)OCO2`, for which the cytotoxicity call with HSkMC and with HepG2 was “inactive” throughout. Besides, in the experiment on S. aureus RN4220, the growth inhibition call is “inactive”.

`COc1ccc(S(=O)(=O)Nc2ccc3c(c2)C(=O)N([C@H](C)CO)C[C@@H](C)[C@H](CN(C)C(=O)NC(C)C)O3)cc1`: the cytotoxicity call in the experiment with HSkMC and in the experiment on HepG2 was “inactive” each time. The growth inhibition call with S. aureus RN4220 was “inactive”.

With `CO[C@@H]1CN(C)C(=O)c2cc(NS(C)(=O)=O)ccc2OC[C@@H](C)N(C(=O)C2CCCCC2)C[C@@H]1C`, the cytotoxicity call with HSkMC and in the experiment with HepG2 was “inactive” each time. Further, the growth inhibition call in the experiment with S. aureus RN4220 was “inactive”.

On to `CC1(C(=O)O)CCC2(C)CCC3(C)C(=CC(=O)C4C5(C)CCC(O)C(C)(C)C5CCC43C)C2C1` (stereo not drawn), for which the cytotoxicity call in the experiment with HSkMC and with HepG2 was “inactive” in each case. In addition, the growth inhibition call in the experiment with S. aureus RN4220 was “inactive”.

In the case of `C[C@H]1CN([C@@H](C)CO)C(=O)c2cc(NC(=O)Nc3ccc(C(F)(F)F)cc3)ccc2O[C@H]1CN(C)C(=O)Nc1cccc2ccccc12`, the cytotoxicity call in the experiment on HSkMC and in the experiment with HepG2 was “inactive” throughout. Besides, the growth inhibition call with S. aureus RN4220 is “inactive”.

Regarding `C[C@H](CO)N1C[C@H](C)[C@H](CN(C)Cc2ccc(C(F)(F)F)cc2)Oc2ccc(NC(=O)CCCCCC(=O)Nc3ccccc3N)cc2CC1=O`, the cytotoxicity call with HSkMC is “inactive”. Also, the cytotoxicity call with HepG2 was “active”. Also, the growth inhibition call with S. aureus RN4220 is “inactive”.

As for `C[C@H]1CN([C@@H](C)CO)C(=O)c2cccc(NC(=O)Nc3ccc4c(c3)OCO4)c2O[C@@H]1CN(C)Cc1ccc(C(=O)Nc2ccccc2N)cc1`, the cytotoxicity call in the experiment on HSkMC and in the experiment with HepG2 was “inactive” throughout. The growth inhibition call with S. aureus RN4220 was “inactive”.

As for `C[C@@H]1CN([C@H](C)CO)C(=O)Cc2cc(NC(=O)CCN3CCOCC3)ccc2O[C@H]1CN(C)S(=O)(=O)c1ccc(F)cc1`, the cytotoxicity call in the experiment with HSkMC and in the experiment with HepG2 was “inactive” in each case. Moreover, in the experiment with S. aureus RN4220, the growth inhibition call is “inactive”.

As for `C[C@@H]1CN([C@H](C)CO)C(=O)Cc2cc(NC(=O)c3ccncc3)ccc2O[C@H]1CN(C)S(=O)(=O)c1ccc(F)cc1`, the cytotoxicity call in the experiment with HSkMC and with HepG2 was “inactive” each time. In addition, in the experiment with S. aureus RN4220, the growth inhibition call is “inactive”.

Regarding `C[C@@H]1CN([C@H](C)CO)C(=O)c2cc(NC(=O)CCCN(C)C)ccc2O[C@@H](C)CCCCO[C@H]1CN(C)C(=O)Nc1ccc(F)cc1`, the cytotoxicity call in the experiment with HSkMC and with HepG2 was “inactive” in each case. In addition, the growth inhibition call in the experiment on S. aureus RN4220 is “inactive”.

`CCOC(=O)[N-]c1c[n+](N2CCOCC2)no1`: the cytotoxicity call with HSkMC and in the experiment on HepG2 was “inactive” each time. For the same compound, the growth inhibition call with S. aureus RN4220 is “inactive”.

Turning to `Cc1cc(C)n2nc(SCC(=O)O)nc2n1`, the cytotoxicity call in the experiment with HSkMC and in the experiment on HepG2 was “inactive” throughout. Further, the growth inhibition call in the experiment with S. aureus RN4220 was “inactive”.

For the compound `Cc1cc(C(=O)Nc2cccc3c2O[C@H](CN(C)C(=O)NC2CCCCC2)[C@@H](C)CN([C@H](C)CO)C3=O)n(C)n1`, the cytotoxicity call with HSkMC and with HepG2 was “inactive” in each case. For the same compound, the growth inhibition call in the experiment on S. aureus RN4220 was “inactive”.

Turning to `COc1cc2c(cc1OC)C([C@H](C(=O)N(CCc1ccc(OC)c(OC)c1OC)CCc1ccc(OC)c(OC)c1OC)c1ccccc1)=NCC2`, the cytotoxicity call in the experiment with HSkMC and in the experiment on HepG2 was “inactive” in each case. The growth inhibition call in the experiment on S. aureus RN4220 is “inactive”.

With `C[C@H](CO)N1C[C@H](C)[C@H](CN(C)C(=O)Nc2ccc(C(F)(F)F)cc2)OCCCC[C@H](C)Oc2ccc(NS(=O)(=O)c3ccc(F)cc3)cc2C1=O`, the cytotoxicity call in the experiment on HSkMC and in the experiment with HepG2 was “inactive” each time. The growth inhibition call in the experiment on S. aureus RN4220 was “inactive”.

In the case of `C[C@H]1CN([C@@H](C)CO)C(=O)c2cccc(NS(=O)(=O)c3cn(C)cn3)c2O[C@@H]1CN(C)CC1CCCCC1`, the cytotoxicity call in the experiment on HSkMC and in the experiment with HepG2 was “inactive” each time. Moreover, in the experiment with S. aureus RN4220, the growth inhibition call was “inactive”.

As to `CC(=O)O[C@H]1C[C@@H](OC(C)=O)C(C)(C)[C@@H]2CC(=O)[C@]3(C)[C@H](CC[C@@]4(C)[C@H](C(=O)O)OC(=O)[C@H]5O[C@]543)[C@@]12C`, the cytotoxicity call in the experiment on HSkMC and in the experiment with HepG2 was “inactive” throughout. The growth inhibition call in the experiment with S. aureus RN4220 was “inactive”.

For `COc1ccc(CN(C)C[C@H]2OCCCC[C@@H](C)Oc3ccc(NC(=O)NC(C)C)cc3C(=O)N([C@@H](C)CO)C[C@H]2C)cc1`, the cytotoxicity call in the experiment on HSkMC and in the experiment on HepG2 was “inactive” each time. In the experiment on S. aureus RN4220, the growth inhibition call was “inactive”.

As for `C[C@@H]1CCCCO[C@@H](CN(C)Cc2ccncc2)[C@H](C)CN([C@H](C)CO)C(=O)c2cc(NS(=O)(=O)c3ccc(Cl)cc3)ccc2O1`, the cytotoxicity call in the experiment on HSkMC and in the experiment on HepG2 was “inactive” each time. Also, the growth inhibition call in the experiment on S. aureus RN4220 is “inactive”.

Regarding `C[C@H](CO)N1C[C@H](C)[C@@H](CN(C)C(=O)Nc2ccccc2)Oc2ccc(NS(=O)(=O)c3cn(C)cn3)cc2CC1=O`, the cytotoxicity call in the experiment with HSkMC and in the experiment on HepG2 was “inactive” each time. Moreover, the growth inhibition call with S. aureus RN4220 is “inactive”.

Regarding `C(=C\c1ccncc1)/c1ccncc1`, the cytotoxicity call in the experiment on HSkMC (human skeletal muscle cells) and with HepG2 was “inactive” each time. Also, in the experiment with S. aureus RN4220, the growth inhibition call is “inactive”.

Turning to `C[C@@H]1CN([C@H](C)CO)C(=O)c2cccc(NC(=O)c3cnccn3)c2O[C@@H]1CN(C)C(=O)Nc1ccc2c(c1)OCO2`, the cytotoxicity call with HSkMC and with HepG2 was “inactive” throughout. In addition, in the experiment on S. aureus RN4220, the growth inhibition call is “inactive”.

With `COc1ccc(NC(=O)Nc2ccc3c(c2)C(=O)N([C@H](C)CO)C[C@@H](C)[C@@H](CN(C)C(=O)C2CCCCC2)OCCCC[C@@H](C)O3)cc1`, the cytotoxicity call with HSkMC and in the experiment with HepG2 was “inactive” in each case. Moreover, the growth inhibition call in the experiment on S. aureus RN4220 is “inactive”.
